This experiment has as its system NCI-H322M lung. The experiment can be described thus: inhibition of tumour cell growth, NCI panel, 48 h.

Molecules are shown by their SMILES.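 Protocol summary: plate cells (96-well), add compound at 5 concentrations, incubate 48 h, interpolate endpoints linearly. GI50 = concentration required for 50% inhibition of growth. The concentration for full growth arrest is given as TGI.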

On to `C#C[C@]1(O)CC[C@H]2[C@@H]3CC=C4c5sc(Nc6cccc(C)n6)nc5CC[C@]4(C)[C@H]3CC[C@@]21C`, for which the GI50 is 2140 nM and the TGI turned out to be 12.1 µM.
The like results for `CC1=C2C(=C[C@@](C)(C=O)[C@@H]2O)C(=O)[C@](C)(O)C12CC2` were, in that order, 2250 nM and 7.75 µM.
